Measured values taken from the supplement of paper PMC4723716.
The full ranking holds about 3,600 compounds; the median of “viability index relative to DMSO control” is about 0.81, and the lowest 2% start at about 0.13. This is one part of the list.

Tested on: Plasmodium falciparum NF54 stage V gametocytes
Experiment: viability index relative to DMSO control (fraction); higher = less gametocyte killing
Conditions: 1.25 µM, incubation time: 72 h
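Also: 384-well serum-free SaLSSA: MitoTracker Red CMXRos staining with saponin lysis, high-content imaging, treated-well particle count divided by plate-mean count of DMSO wells.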

SMILES | viability index
CCOC(=O)N1CCN(S(=O)(=O)c2ccc(C(=O)Nc3sc4c(c3C(N)=O)CCN(CC)C4)cc2)CC1 | 1.2
CCOc1ccc(N2C(=O)c3ccccc3NC2(C)C)cc1 | 0.834
O=C1c2cccc(N3CCCC(C(=O)N4CCCCC4c4cccnc4)C3)c2C(=O)N1Cc1ccc(C(F)(F)F)cc1 (centres undefined) | 0.865
CCOc1ccc2nc(C)cc(Nc3ccc(Br)cc3)c2c1 | 1.16
O=C(C1CC1)N1CCc2cc(Br)cc(S(=O)(=O)N3CCCC3)c21 | 0.702
CCOc1ccc(-c2cn3c(n2)sc2cc(C(=O)NCCN(CC)CC)ccc23)cc1 | 0.904
CC(C)N(C(=O)Cn1ccc(=N)c2ccccc21)C(C)C | 0.877
O=C(Nc1cc(Oc2ccc(F)cc2)cc([N+](=O)[O-])c1)c1nc2nc(-c3ccccc3)cc(C(F)(F)F)n2n1 | 0.815
COC(=O)c1sccc1S(=O)(=O)N1CCCC(c2[nH]ncc2-c2ccccc2)C1 (centres undefined) | 0.933
Cc1cc(Nc2ccc(N(C)C)cc2)n2ncnc2n1 | 1.19
Cc1cc(C)n(-c2ncc(-c3ccc([N+](=O)[O-])cc3)cn2)n1 | 1.02
COc1ccc(-c2csc3ncnc(Cl)c23)cc1OC | 0.837
OCCNc1nc(Nc2ccc(Cl)c(Cl)c2)nc2ccccc12 | 0.528
Cc1cc2c(cc1S(=O)(=O)N1CCCCC1C)OCC(=O)N2 (centres undefined) | 1.11
COc1ccc(CCNC(=O)c2cc(S(=O)(=O)N3CC(C)CC(C)C3)ccc2Sc2ccc(F)cc2)cc1OC (centres undefined) | 0.909
CN(C)c1ccc(C=NNc2ncnc3[nH]cnc23)cc1 | 0.76
Oc1ccc(-c2ccccn2)cc1CNC1CCN(Cc2ccccc2)CC1 | 0.913
Cc1nc(-c2nc3c(s2)CN(C(=O)COc2ccc(Cl)cc2)CC3)cs1 | 0.661
CCOC(=O)c1ccc2nc(-c3ccccc3)cc(O)c2c1 | 1.08
COc1ccccc1NC(=O)C(=O)NCCc1ccc(OC)c(OC)c1 | 0.413
CCN1c2ccccc2N(C)C1(C)c1ccccc1 (centres undefined) | 0.179
COc1ccc(NC(=O)c2cc3cc(C4(O)CCN(CC5CC=CCC5)CC4)ccc3o2)cc1 (centres undefined) | 0.654
CC(C)CC(N)C(=O)N1CCn2c(nc(-c3ccccc3)c2Nc2ccc3c(c2)OCO3)C1 (centres undefined) | 0.214

SMILES | viability index
CCNC(=O)C1CCN(c2cccc3c2C(=O)N(C2CCCCCCC2)C3=O)CC1 | 0.981
CC(C)OCCCNc1sc(S(=O)(=O)c2ccccc2)nc1S(=O)(=O)c1ccc(Cl)cc1 | 0.622
CN(C)c1nnc(C(C#N)=Cc2cc(C(=O)c3cccc(Cl)c3)cn2C)o1 | 0.816
CCOC(=O)C1=C(C)NC2=C(C(=O)CC(c3ccc(Cl)cc3)C2)C1c1ccc(F)cc1 (centres undefined) | 0.728
CCCCN(CCCC)S(=O)(=O)c1cc(Br)cc2c1N(C(C)=O)CC2 | 0.932
CCN1CCN(c2cc(C)c3cc(NC(=O)c4cncc(Br)c4)ccc3n2)CC1 | 0.801
COc1ccc(C2CC(=O)C3=C(C2)NC(=O)CC3c2ccc(C(F)(F)F)cc2)cc1OC (centres undefined) | 0.434
O=C(CSc1ccc2nnc(-c3cccc(F)c3)n2n1)Nc1ccc2c(c1)OCO2 | 0.579
Cc1cc(Nc2ccc(C)c(C)c2)n2nc(C)nc2n1 | 1.09
Cc1ccc(-n2c(=S)sc3c(=O)n(-c4ccccc4)c(SCC(=O)c4ccccc4)nc32)cc1C | 1.08
CCCCOc1ccc(C=CC(=O)NCc2ccco2)cc1 | 1.2
Cc1ccc(NC(=O)ON=C2CCCC2)cc1 | 0.147
COc1ccc(C2CC(=O)C3=C(C2)NC(C)=C(C(=O)OC2CCCC2)C3c2ccc(OC)cc2)cc1 (centres undefined) | 0.732
COc1ccc(-c2csc(NC(=O)COc3ccccc3Cl)n2)cc1Br | 0.679
CCC(C)(C)c1ccc(OCCCC[n+]2cccc(C)c2C)c(C(C)(C)CC)c1 | 0.298
CC1CN(C)C(C)CC1=NOC(=O)c1ccc(Cl)c(Cl)c1 (centres undefined) | 0.954
O=C(NC1CCN(Cc2ccccc2)CC1)c1cc(-c2ccc(F)cc2)cc(-n2cnnn2)c1 | 1.12
CCOC(=O)C1CCN(C(=O)c2c(C)oc3c2C(=O)c2ccccc2C3=O)CC1 | 0.0992
COc1ccc(CCNC2(Cc3ccccc3)CC(C)N(C)CC2C)cc1OC (centres undefined) | 0.753
Cc1cc(Nc2ccc(C)c(Cl)c2)n2ncnc2n1 | 1.1
COc1ccccc1N1CCN(c2c3c(nc4nncn24)CCC3)CC1 | 1.16
CCCCOC(=O)c1ccc(NC2=C(c3ccc(OC)cc3)C(=O)c3ccccc32)cc1 | 0.525
C=CCNC(=S)N1CCc2c([nH]c3ccccc23)C1C(F)(F)F (centres undefined) | 0.423

SMILES | viability index
CCC(CC)CN1CCC(O)(c2ccc3oc(C(=O)Nc4ccc(OC)c(OC)c4)cc3c2)CC1 | 1.14
Cc1cc(C)cc(-n2c(C)cc(C=C3SC(=Nc4ccc(Br)cc4)NC3=O)c2C)c1 | 0.604
O=[N+]([O-])c1ccc(-c2ccc(C=NNc3ccccn3)o2)cc1 | 0.873
CCN1c2ccc([N+](=O)[O-])cc2N(CC)C1(C)c1ccccc1 (centres undefined) | 0.373
COc1cc([N+](=O)[O-])ccc1NC(=O)CN1CCN(C(=O)c2ccco2)CC1 | 1.03
COc1ccc(-c2cn(-c3ccc(OC)cc3)c(SCC(=O)Nc3ccccc3)n2)cc1 | 1.04
Oc1c(C(Nc2ccccn2)c2cccc(Cl)c2Cl)ccc2cccnc12 (centres undefined) | 0.819
CCOc1ccc(NC2=C(N3CCOCC3)C(=O)c3ccccc3C2=O)cc1 | 0.869
COc1cc(C(=O)NC(C)C)ccc1OC1CCN(CC(c2ccccc2)c2ccccc2)CC1 | 0.399
C[N+](C)(CCCC(=O)c1ccc(C(=O)CCC[N+](C)(C)Cc2ccccc2Cl)cc1)Cc1ccccc1Cl | 1.09
COc1cc(C(=O)NC(c2cccs2)c2cc(Cl)c3cccnc3c2O)cc(OC)c1OC (centres undefined) | 1.25
COc1ccc(C2c3cccn3-c3ccccc3N2C(=O)CN(C(=O)Nc2ccc(C(F)(F)F)cc2)C2CC2)cc1 (centres undefined) | 1.07
COc1cc(C(c2c(C)n(C)n(-c3ccccc3)c2=O)c2c(C)n(C)n(-c3ccccc3)c2=O)cc(Cl)c1OCc1ccccc1 | 0.699
Fc1ccc2[nH]c3c(NCCN4CCCCC4)ncnc3c2c1 | 0.987
COc1ccc2c(c1)C=C([C@@H]1C[C@H]3CN(c4ccccc4)C(=O)[C@]34CCCN14)CO2 | 0.904
O=C(CSc1nc2ccccc2c(=O)n1C1CC1)Nc1cc(C(F)(F)F)ccc1Cl | 0.797
COc1ccc(NC2=C(c3ccc(OC)cc3)C(=O)c3ccccc32)cc1 | 0.779
CCN(CC)CCNc1ccnc2ccc([N+](=O)[O-])cc12 | 1.13
Cc1c(C=O)c2ccccc2n1CC(=O)Nc1cccc(I)c1 | 1.1
N=c1c2c(n(Cc3ccccc3)c3c1CCC3)CCC2 | 0.87
CC1=C(C(=O)OC2CCCCC2)C(c2ccc(F)cc2)C2=C(CC(c3ccccc3)CC2=O)N1 (centres undefined) | 0.751
Cc1cc(Nc2cc(Cl)cc(Cl)c2)n2nc(C)nc2n1 | 1.19
CC(C)(C)C(=O)Nc1ccc(C23CC4CC(CC(c5ccccc5)(C4)C2)C3)cc1 | 0.562

SMILES | viability index
FC(F)(F)c1cnc(Sc2nnc(-c3ccncc3)o2)c(Cl)c1 | 0.939
CCOc1ccc2[nH]c(=O)c(CN(Cc3ccccc3OC)C(C)=O)cc2c1 | 0.882
CCC(=O)N1CCc2cc(Br)cc(S(=O)(=O)N3CCCCC3CC)c21 (centres undefined) | 0.936
CCN(CC)CCCNC(=S)N(CCc1cccc(C)c1)Cc1cc2cc(OC)c(OC)cc2[nH]c1=O | 0.921
COc1ccc(NC(=O)c2cc3cc(C4(O)CCN(CC(C)c5ccccc5)CC4)ccc3o2)cc1 (centres undefined) | 0.856
CCOc1ccc(C(=O)C[N+]2=C(CC)c3ccc(C)n3CC2)cc1 | 0.599
COc1cc(Nc2cncc(-c3ccc(C(N)=O)cc3)n2)cc(OC)c1OC | 0.0179
N#Cc1ccc(CNC(=S)Nc2cc(Cl)ccc2Cl)cc1 | 0.656
Cc1ccc(Nc2nc(-c3ccccn3)cs2)cc1 | 0.127
CC(C)c1ccc(NC(=O)C(Cc2cccs2)c2nnn[nH]2)cc1 (centres undefined) | 0.673
O=C(O)c1ccc(C=NNc2ccc([N+](=O)[O-])cc2)cc1 | 0.774
Cc1cc(NC(c2cccc(Br)c2)c2ccc3cccnc3c2O)no1 (centres undefined) | 0.785
CCN1C(=Cc2ccc3ccccc3[n+]2CC)Sc2cc(NC(C)=O)ccc21 | 0.692
O=C(c1ccc2nc(N3CCCCC3)sc2c1)N1CCN(Cc2ccc3c(c2)OCO3)CC1 | 0.486
CCOC(=O)c1cnc2ccc(C)cc2c1NCCCN1CCOCC1 | 0.838
Cc1cccc(CCNc2cc(C)nc3ncnn23)c1 | 0.982
FC(F)(F)c1ccc(-c2nc(C34CC5CC(CC(C5)C3)C4)cs2)cc1 | 1.2
COc1ccc2nc3ccccc3c(N)c2c1 | 0.954
C=CCOc1c(Br)cc(C=c2sc3n(c2=O)C(c2ccc(OC)c(OC)c2)C(C(=O)OCC)=C(C)N=3)cc1OC (centres undefined) | 1.2
CCOC(=O)C1=C(C)NC2=C(C(=O)C(C(=O)OC)C(C)C2)C1c1cc(Br)c(OC)c(OC)c1 (centres undefined) | 0.847
